# From article PMC4336329 (PLoS ONE, 2015)
# Screen size: about 310,000 compounds; about 14,000 (4.5%) showed an effect of 50% or more. The effect is printed as a negative number. The list shows a part of the results.
# Target: human ether-à-go-go-related gene (hERG) potassium channel (human, UniProt Q12809)
# Assay: primary screen, population patch clamp on CHO cells stably expressing hERG
# 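Note: peak tail current of the secondary pulse compared with the same well before compound.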
# Sequence of human ether-à-go-go-related gene (hERG) potassium channel (Q12809 whole entry, looked up): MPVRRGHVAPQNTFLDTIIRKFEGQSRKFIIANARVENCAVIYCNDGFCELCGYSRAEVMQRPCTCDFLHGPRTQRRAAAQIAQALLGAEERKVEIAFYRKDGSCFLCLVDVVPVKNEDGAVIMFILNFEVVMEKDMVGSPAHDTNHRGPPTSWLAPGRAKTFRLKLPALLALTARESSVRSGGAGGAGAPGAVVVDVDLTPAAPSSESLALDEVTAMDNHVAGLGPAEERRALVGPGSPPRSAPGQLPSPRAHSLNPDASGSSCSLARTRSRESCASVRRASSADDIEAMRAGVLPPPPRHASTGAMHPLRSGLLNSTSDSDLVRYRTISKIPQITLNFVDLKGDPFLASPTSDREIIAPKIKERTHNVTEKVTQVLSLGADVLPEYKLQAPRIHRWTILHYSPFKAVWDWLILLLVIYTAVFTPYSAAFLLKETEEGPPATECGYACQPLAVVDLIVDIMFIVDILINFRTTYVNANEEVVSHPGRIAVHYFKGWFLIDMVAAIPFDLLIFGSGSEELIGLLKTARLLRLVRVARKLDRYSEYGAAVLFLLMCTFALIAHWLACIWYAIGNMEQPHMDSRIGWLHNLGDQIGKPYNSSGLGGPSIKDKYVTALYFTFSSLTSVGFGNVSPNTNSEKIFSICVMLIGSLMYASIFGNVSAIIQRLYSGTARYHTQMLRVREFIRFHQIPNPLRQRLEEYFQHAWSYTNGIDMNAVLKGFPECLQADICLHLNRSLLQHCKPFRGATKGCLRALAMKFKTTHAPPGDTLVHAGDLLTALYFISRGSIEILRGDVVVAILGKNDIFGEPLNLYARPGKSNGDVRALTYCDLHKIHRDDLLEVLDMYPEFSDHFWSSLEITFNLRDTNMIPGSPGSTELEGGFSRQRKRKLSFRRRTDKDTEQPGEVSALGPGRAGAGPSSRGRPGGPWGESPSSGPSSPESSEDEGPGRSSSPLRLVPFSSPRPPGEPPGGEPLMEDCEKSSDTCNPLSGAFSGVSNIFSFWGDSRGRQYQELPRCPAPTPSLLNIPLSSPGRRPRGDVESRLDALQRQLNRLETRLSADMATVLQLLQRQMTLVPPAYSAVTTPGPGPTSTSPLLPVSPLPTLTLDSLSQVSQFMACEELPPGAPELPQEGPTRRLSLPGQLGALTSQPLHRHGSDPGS
row,SMILES,"hERG current change (%, negative = inhibition) at 10uM"
1,Nc1ccn(CC(=O)NCc2ccccc2)c(=O)n1,17.6%
2,CCc1ccc(N2CC(C)Cn3c2nc2c3c(=O)n(CCN3CCOCC3)c(=O)n2C)cc1 (centres unmarked),-38.5%
3,COC(=O)c1ccc(COc2ccc(/C=C/C(=O)c3ccc(OC)c(CSCC(=O)O)c3)cc2OC)cc1,15%
4,CCOC(=O)c1sc(N2C(=O)C(O)=C(C(=O)c3ccco3)C2c2cccc([N+](=O)[O-])c2)nc1C (centres unmarked),16.6%
5,CN1CCC(N(C)S(=O)(=O)c2ccc(NC(=O)COc3cccc(C(F)(F)F)c3)cc2)CC1,-22.1%
6,O=C(N[C@H](Cc1ccc(Cl)cc1)C(=O)O)OCC1c2ccccc2-c2ccccc21,10.5%
7,Cc1ccccc1NC(=O)C1CCCN1S(=O)(=O)c1ccccc1C(F)(F)F (centres unmarked),-1.05%
8,COc1ccc(-c2nn(-c3ccccc3)cc2/C=C/C(=O)NCCCn2ccnc2)cc1OC,-18.4%
9,Cc1ccc(/C=N/NC(=O)CSc2nnc(-c3ccc(Cl)cc3)n2-c2ccccc2)o1,-39.5%
10,O=C(COC(=O)c1ccco1)c1ccccc1,20.9%
11,Cc1[nH]nc(SCC(=O)NC2CCCC2)c1[N+](=O)[O-],-16.7%
12,CCCCOC(=O)c1cc(-c2ccc(/C=N/n3cnnc3)o2)ccc1Cl,5.69%
13,CC(C)(CNC(=O)CNC(=O)c1ccccc1F)N1CCOCC1,21.3%
14,Cc1ccc(Cn2cccc2C2=NC(C)CO2)cc1 (centres unmarked),-20.1%
15,COc1ccc(C(=O)NC2CC2)cc1OC1CCN(Cc2ccc(SC)cc2)CC1,-88.7%
16,COc1ccc(/C=C(\C#N)C(=O)OCC(=O)NC(=O)NCCC(C)C)cc1,0.707%
17,CC1CCCC(N2C(=O)NC(NC(=O)c3ccco3)(C(F)(F)F)C2=O)C1C (centres unmarked),-2.21%
18,O=C(O)c1ccc(COc2ccccc2[N+](=O)[O-])o1,14.8%
19,CCCCn1c(SCC(=O)c2ccc3c(c2)NC(=O)CO3)nc2cc(S(N)(=O)=O)ccc21,6.96%

row,SMILES,"hERG current change (%, negative = inhibition) at 10uM"
1,CS(=O)(=O)c1[nH]nc(-c2ccccc2)c1C#N,15.1%
2,CCOc1ccc(C(=O)Nc2cccc(SC)c2)cc1,-13.1%
3,CC(=O)Oc1ccc2c(=O)c(Oc3ccccc3)coc2c1OC(C)=O,2.25%
4,Cc1cc2c(cc1C)N(Cc1ccc(Cl)cc1)C1=NCCCN12,-69.8%
5,Cn1cccc1/C=N/NC(=O)c1ccn[nH]1,3.78%
6,CC(C)N1CCN(S(=O)(=O)c2ccccc2)CC1.O=C(O)C(=O)O,22.2%
7,N#Cc1c(N)sc2c1CCCCCC2,-8.8%
8,CNC(=S)N/N=C/c1c(C)nn(-c2ccccc2)c1Cl,6.94%
9,Cc1ccc(N2CC(C(=O)NCCS(=O)(=O)N3CCN(c4ccc(F)cc4)CC3)CC2=O)cc1 (centres unmarked),15.8%
10,CCCCCCc1c(O)nc(SCCN2CCOCC2)[nH]c1=O.Cl,13.3%
11,Cc1ccccc1NC(=S)NC(NC(=O)C(C)(C)C)C(Cl)(Cl)Cl (centres unmarked),-23.3%
12,CCOc1ccc(C2c3[nH]c4ccccc4c3CCN2Cc2cccn2-c2ncccn2)cc1 (centres unmarked),-53.3%
13,COCCn1c(SCC(=O)NCCc2ccc(OC)c(OC)c2)nc2c([nH]c3ccccc32)c1=O,4.74%
14,Cc1nc(NC(=S)NC(=O)c2cncc(Br)c2)ccc1Br,12.9%
15,Cc1ccc(NC(=O)c2ccc(C#CC3(O)CCCCC3)cc2)cc1C,3.93%
16,COc1ccc(CN=C2NN=C(c3ccc(Cl)cc3)CS2)cc1,-3.21%
17,O=C(Nc1ccc2c(c1)OCO2)C(c1ccccc1)N1CCCCC1 (centres unmarked),-14.2%
18,CCOc1cccc(/C=N/NC(=O)c2cccnc2)c1O,4.02%
19,CC1(C)Cc2c(c(N3CCOCC3)nc3snc(NC(=O)c4ccccc4)c23)CO1,-4.78%

row,SMILES,"hERG current change (%, negative = inhibition) at 10uM"
1,Cc1nn(C)cc1N1C(=O)c2cccc3c(N)ccc(c23)C1=O,1.31%
2,COc1ccc(CN2CN(C(C)C)CSC2=S)cc1,8.31%
3,O=C(NC1CCCCC1)Oc1ccccc1,17.2%
4,CCC1CC2CC(NC(C)=O)C1C2 (centres unmarked),5.42%
5,Cc1ccc(C)c(S(=O)(=O)N2CCN(C(=O)c3ccnn3C)CC2)c1,-7.28%
6,Cc1ccc(Cn2c(N/N=C/c3ccncc3)nc3c2c(=O)n(C)c(=O)n3C)cc1,-25.9%
7,O=C(Nc1nnc(SCc2c(Cl)cccc2Cl)s1)c1ccc2ncsc2c1,12%
8,Cc1ccsc1C(=O)NC1CCCCC1C (centres unmarked),-17.8%
9,Br.CC(C)(C)C(=O)Cn1c(=N)n(Cc2ccccc2Cl)c2ccccc21,-49.2%
10,CCN1C(=O)[C@H]2[C@@H](c3ccc(C)cc3)N3C(=O)N(c4cccc(Cl)c4)C(=O)[C@@]3(Cc3ccc(Cl)cc3)[C@H]2C1=O,8.27%
11,O=C(N[C@H](CO)Cc1ccccc1)c1ccco1,9.08%
12,O=C(NCc1ccccc1)C1=C[C@H](c2csc3ccccc23)C[C@H](OCc2ccc(CO)cc2)O1,6.12%
13,COC(=O)C1=C(c2ccc(F)cc2F)C[C@@H]2CC[C@H]1N2C(=O)N1CCCCC1,-9.25%
14,COc1ccc(N(CC(=O)N2CCCC2)S(=O)(=O)c2ccc(NC(C)=O)cc2)cc1,-9.91%
15,Oc1ccc(/C=N/Nc2ccc(Cl)nn2)cc1O,-25.2%
16,O=C(NCCO)/C(=C\c1ccc(Br)cc1)NC(=O)c1cccs1,-3.91%
17,CN(CCOc1ccccc1)C(=O)CCc1c[nH]c2ccccc12.Cl,-0.585%
18,O=[N+]([O-])c1cnc(Nc2ccc(Cl)cn2)c([N+](=O)[O-])c1,8.97%
